Experimental data from the RNAGym collection of RNA variant scans (doi:10.1093/nar/gkz1192).
The source gives no read counts; variants with many changes may rest on few reads.

B1: CPEB3 Ribozyme (parent)
chain: UAACAGGGGGCCACAGCAGAAGCGUUCACGUCGCAGCCCCUGUCAGAUUCUGGUGAAUCUGCGAAUUCUGCUGUAUAUCUC

Variants of: B1
Assay: self-cleavage, relative activity (ratio to wild type); higher = more cleavage; in vitro, sequencing
Summary of the method: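 Libraries of CPEB3 self-cleaving ribozyme mutants came from rounds of error-prone PCR and carried barcodes, which DNA sequencing matched to variants. In vitro transcription used T7 RNA polymerase at 37°C for 5 hours, with a further 15 min in DNase I before EDTA stopped the reaction; the ribozymes cleaved during both steps. The RNA was reverse transcribed with template switching and sequenced on Illumina. Relative activity is the cleaved/total read fraction of a variant divided by that of the unmutated ribozyme, averaged over three batches with at least 5 reads.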

| Variant | self-cleavage |
| --- | --- |
| UAACAGGGGGCCACAGCAUAGGCGUUCACGUCGCAGCCCCUGUCAGAUUCUGGUGAAUAUGCGAAUUCUGCUGUAUAUCUC [G19U A21G C59A] | 0.24 |
| UAACAGGGGGCCACAGCUGAAGCGUUCACGUCGCAGCCCCUGUCAGAUACUGGUGUAUCUGCGAAUUCAGCUGUAUAUCUC [A18U U49A A56U U69A] | 1.23 |
| UAACAGGGGGCCACAGCUGAAGCGUUCACGUCGCAGCCCCUGUCAGAUUCUGGUGAACCUGCGAAUUCAGCUGUAUAUCUC [A18U U58C U69A] | 0.47 |
| UAACAGGGGGCCACAGCACAAGCGUUCACGUCGCAGCCCCUGUCAGAUUCUUGUGAAUCUGCGAAUACCGCCGUAUAUCUC [G19C G52U U67A U69C U72C] | 0.16 |
| UAACAGGGGGCCACAGCACAAGCGUUCACGUCGCAGCCCCCGUCGGAUUCUGGUGAAUCUGCGAAUUCUGCUGUAUAUCUC [G19C U41C A45G] | 0.22 |
| UAACAGGGGGCCACAGCAAAAGCGUUCACGCCGCAGCCCCUGUCAGAUUCUGGUGAACCUGCGAGUUCCGCUGUAUAUCUC [G19A U31C U58C A65G U69C] | 0.1 |
| UAACAGGGGGCCACAGCAAAGGCGUUCACGUCGCAGCCCCUGUCUGAUUCAGGUGAAUCUGCGAAUUCUACUCUAUACCUC [G19A A21G A45U U51A G70A G73C U78C] | 0.03 |
| UAACAGGGGGCCACAGCUGAAGCGUUCACGUCGCAGCCCCUGUCAGAUUCUGGUGAAUCAGCGAAUUCUGCUGUGUAUCUC [A18U U60A A75G] | 0.3 |
| UAACAGGGGGCCACAGCUGAAGCGUUCACGUCGCAGCCCCUGUCAGAUCCUGGUGAAUCUGCGAAUUCUGCUGUAUACCUC [A18U U49C U78C] | 0.15 |
| UAACAGGGGGCCACAGCUGAAGCGUUCACGUCGCAGCCCCCGUCAGAUUCUGGUGAAUCUGCGAAUUCUGCUGUAUGUCUC [A18U U41C A77G] | 0.42 |
| UAACAGGGGGCCACAGCAAAAGCGUUCACGUCGCGGCCCCUGUCAGGUUCUGGUGAAUCUGCGAAUUCCGCUGUAUAUCUC [G19A A35G A47G U69C] | 0.24 |
| UAACAGGGGGCCACAGCAAAAGCGUUCUCGUCGCGGCCCCUGUCAGAUUCUGGUGAAUCUGCGAAUUCUGCUGUAUAUCUC [G19A A28U A35G] | 0.54 |
| UAACAGGGGGCCACAGCAAAAGCGUUCACGUCGCAGCCCCUGUCGGAUUCAGGUGAAUCUGCGAAUUCUGCAGUAUUCCUC [G19A A45G U51A U72A A77U U78C] | 0.08 |
| UAACAGGGGGCCACAGCACAAGCGUUCACGUCGCAGCCCCCGCCAGAUUCUGGUGAAGCUGCGAAUUCUGCUGUAUAUCCC [G19C U41C U43C U58G U80C] | 0.05 |
| UAACAGGGGGCCACAGCUGAAGCGUUCACGCCGCAGCCCCUGUCAGAUUCUGGUGAAUCUGCGAAUUCCGCUGUAUAUCUC [A18U U31C U69C] | 0.2 |
| UAACAGGGGGCCACAGCACAAGCGUCCACCGCGCAGCCCCUGUCAGAUUCUGGUGAAUCUGCGAACUCUGCUGUAUAUCUC [G19C U26C G30C U31G U66C] | 0.15 |
| UAACAGGGGGCCACAGCAAAAGCGUCCACGUCGCAGCCCCUGUCAGAUUCUGGUGAAUCAGCGAAUUCUGCUGUAUAUCUC [G19A U26C U60A] | 0.35 |

| Variant | self-cleavage |
| --- | --- |
| UAACAGGGGGCCACAGCUGAAGCGUUCACGUCGCAGCCCCUGUCAGAUUCUGGCGAAUCUGCGAAUUCUGCUGUAUAUUUC [A18U U54C C79U] | 0.23 |
| UAACAGGGGGCCACAGCACAAGCAUUCACGUUGCAGCCCCUGUCAGAUCCUGGUGUAUCUGCGAAUUCUGCUGUACAUCUC [G19C G24A C32U U49C A56U U76C] | 0.03 |
| UAACAGGGGGCCACAGCACAAGCGUUCACGUCGCAGUCCCUGUCAGAUUCUGGUGAAUCUGCUAAUUCUGCUGUAUAUCUC [G19C C37U G63U] | 0.21 |
| UAACAGGGGGCCACAGCUGAAGCGUUCACGUCGCAGCCCCUGUCAGACUCUGGUGAAUCUGCGAAUUCUGCUGUAUAUCCC [A18U U48C U80C] | 0.35 |
| UAACAGGGGGCCACAGCAAAAGCGUUCACGUCGCGGCCCCUGUCAGAUUCUGGUGAAUCCGCGAAUUCUGCUGUAUUUCUC [G19A A35G U60C A77U] | 0.35 |
| UAACAGGGGGCCACAGCAAAAGCGUUCACGUCGCAGCCCCUGUCAGAUCCUGGUGGAUCUGCGAAUUCUGCUGUAUAUCCC [G19A U49C A56G U80C] | 0.43 |
| UAACAGGGGGCCACAGCUGAAGCGUUCACGCCGCAGCCCCUGUCAGAUUCUGGUGAAUCUGCGAAUACUGCUGUAUAUCUC [A18U U31C U67A] | 0.18 |
| UAACAGGGGGCCACAGCUGAAGCGUUCACGUCGCAGCCCCUGUCAGAUUCUGGUGAAUCUGCGAAUCCUGAUGUAUAUCUC [A18U U67C C71A] | 0.15 |
| UAACAGGGGGCCACAGCUGAAGCGUUCACGUCGCAGCCCCUGUCAGAUUCUGGUGAAUCUGCGAAUUCCGCGGUAUAUCUC [A18U U69C U72G] | 0.31 |
| UAACAGGGGGCCACAGCUGAAGCGUUCACGCCGCAGCCCCUGUCAGAUUCUGGUGAAUCUGCGAAUUCUGCUGUAAAUCUC [A18U U31C U76A] | 0.15 |
| UAACAGGGGGCCACAGCUGAAGCGUUCACGGCGCAGCCCCAGUCAGAUUCUGGUGAAUCUGCGAAUUCUGCUGUAUAUCUC [A18U U31G U41A] | 0.07 |
| UAACAGGGGGCCACAGCUGAAGCGUUCACGUCGCAGCCCCUGUCAGAAUCUGGUAAAUCUGCGGAUUCUGCUGUAUAUCUC [A18U U48A G55A A64G] | 0.04 |
| UAACAGGGGGCCACAGCUGAAGCGUUCACGUCGCAGCCCCCGCCAGGUUCUGGUGAAUCUGUGAGUUCUGCUGUAUAUCCC [A18U U41C U43C A47G C62U A65G U80C] | 0.1 |
| UAACAGGGGGCCACAGCACAAGCGUACUCGUCGUAGCCCCUGCCAGAUCCUGGUGAAUCUGCGAAUUCUGCUGUAUAUCUC [G19C U26A A28U C34U U43C U49C] | 0.04 |
| UAACAGGGGGCCACAGCUGAAGCGUUCACGUCGCAGCCCCUGCCAGAUUCUGGUGGAUCUGCGAAUUCUGCUGUAUAUCUC [A18U U43C A56G] | 0.18 |
| UAACAGGGGGCCACAGCAUAAGCGUUCGCGUCGCAGCCCCUGUCAGAUUCUGGUGAAUCCGCGAAUUCUGCUGUAUAUCUC [G19U A28G U60C] | 0.06 |
| UAACAGGGGGCCACAGCUGAAGCGUUCACGUCGCAGCCCCUGUCAGAUCCUGGUGAAUCUGCGAGUUCUGCUGUAUAUCUC [A18U U49C A65G] | 0.18 |
